# In paper PMC4336329 (PLoS ONE, 2015):
# The whole screen tested about 310,000 compounds, of which about 2,200 (0.71%) showed an effect of 50% or more. The effect is printed as a negative number. The list shows a part of the results.
# Molecular target: human ether-à-go-go-related gene (hERG) potassium channel (human, UniProt Q12809)
# Experiment: primary screen, population patch clamp on CHO cells stably expressing hERG
# Sequence of human ether-à-go-go-related gene (hERG) potassium channel (Q12809 whole entry, looked up): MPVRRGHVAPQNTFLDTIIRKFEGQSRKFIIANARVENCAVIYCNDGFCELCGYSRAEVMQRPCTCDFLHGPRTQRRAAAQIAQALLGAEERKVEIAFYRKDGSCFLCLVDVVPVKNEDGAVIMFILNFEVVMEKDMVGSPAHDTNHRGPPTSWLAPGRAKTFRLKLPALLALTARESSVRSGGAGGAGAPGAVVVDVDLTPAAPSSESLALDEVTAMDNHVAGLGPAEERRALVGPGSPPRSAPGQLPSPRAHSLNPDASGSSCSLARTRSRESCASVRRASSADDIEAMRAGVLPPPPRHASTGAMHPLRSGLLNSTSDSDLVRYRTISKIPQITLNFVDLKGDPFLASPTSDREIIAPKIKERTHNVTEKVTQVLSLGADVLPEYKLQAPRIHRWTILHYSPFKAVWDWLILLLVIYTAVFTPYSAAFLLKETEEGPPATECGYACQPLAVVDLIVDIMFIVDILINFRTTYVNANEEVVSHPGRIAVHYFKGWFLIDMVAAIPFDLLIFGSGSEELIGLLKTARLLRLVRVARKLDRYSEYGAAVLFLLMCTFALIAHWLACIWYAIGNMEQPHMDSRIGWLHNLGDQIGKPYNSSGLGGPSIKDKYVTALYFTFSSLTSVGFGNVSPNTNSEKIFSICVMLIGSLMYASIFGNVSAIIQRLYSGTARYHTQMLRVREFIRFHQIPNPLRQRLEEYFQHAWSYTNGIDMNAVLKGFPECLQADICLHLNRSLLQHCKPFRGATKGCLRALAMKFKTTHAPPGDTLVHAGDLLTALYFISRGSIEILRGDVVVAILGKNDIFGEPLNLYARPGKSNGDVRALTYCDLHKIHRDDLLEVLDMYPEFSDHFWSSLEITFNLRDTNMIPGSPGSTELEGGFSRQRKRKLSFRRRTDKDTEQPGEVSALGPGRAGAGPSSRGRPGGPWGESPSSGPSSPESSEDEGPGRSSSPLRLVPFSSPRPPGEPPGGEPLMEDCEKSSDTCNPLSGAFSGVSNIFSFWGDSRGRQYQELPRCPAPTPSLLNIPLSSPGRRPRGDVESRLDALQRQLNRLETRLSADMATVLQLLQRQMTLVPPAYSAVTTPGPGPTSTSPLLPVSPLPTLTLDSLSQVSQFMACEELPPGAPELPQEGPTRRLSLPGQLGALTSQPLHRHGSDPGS
row,Compound,"hERG current change (%, negative = inhibition) at 1uM"
1,OCCNCC(O)Cn1c2ccccc2c2ccccc21 (centres unmarked),15.9%
2,Cc1c(CCC(=O)N2CCC(C(=O)O)CC2)c(=O)oc2cc3oc4c(c3cc12)CCCC4,6.99%
3,O=C(N/N=C/c1ccccc1)c1ccc2c(c1)OCO2,5.33%
4,CCCC/C(=N\NC(=O)c1ccc(Br)o1)c1ccccc1,10.1%
5,COc1ccc(C(=O)OCC2CC(c3ccccc3)N(C)O2)cc1 (centres unmarked),13.5%
6,Cc1cccc(NC(=O)c2ccc(Cl)c(S(=O)(=O)N3CCCCCC3)c2)n1,-5.26%
7,COC(=O)Cc1nc(Nc2ccccc2)sc1C,13.8%
8,O=C(c1c[nH]c2ccccc12)C(F)(F)F,12.2%
9,CCSc1nnc2c(n1)OC=Nc1ccc(Br)cc1-2,4%
10,CC1CC2c3cccc(C(=O)O)c3C(=O)N2c2ccc(Cl)cc21 (centres unmarked),5.28%
11,CC(=O)NCCC(=O)Nc1ccc(C(N)=O)cc1,15.6%
12,CC(C)CN1C(=O)c2ccc(C(=O)Nc3ccccn3)cc2C1=O,-0.242%
13,CCOC(=O)c1sc2ncnc(NCC(c3cccs3)N(C)C)c2c1C (centres unmarked),8.18%
14,COc1cccc(C(=O)NCCC(=O)NCc2cc(=O)n(C)c(=O)n2C)c1,15.7%
15,O=C(C1=C[C@@H](C2CC2)C[C@@H](OCc2ccc(CO)cc2)O1)N1CCN(Cc2ccccc2)CC1,12.6%
16,CC(=O)c1ccc(N2CCN(C(=O)c3ccc4nc[nH]c4c3)CC2)cc1,4.15%
17,CCOC(=O)C1(CCOc2ccccc2)CCN(Cc2ccc(C)o2)CC1,-32.8%
18,COc1cccc(N(CC(=O)NCC2CCCO2)C(=O)CCC(=O)Nc2nccs2)c1 (centres unmarked),18.9%
19,C=CCn1c(-c2ccc(Cl)cc2)c[nH]c1=S,13.5%
20,Cn1[nH]c(CSc2ccc(Cl)cc2)cc1=O,12.1%
21,Cc1cccc(CNc2ncc(-c3cccc([N+](=O)[O-])c3)n2C)c1.O=C(O)C(=O)O,-18.3%
22,COc1cccc(NC(=O)CN(C)S(=O)(=O)/C=C/c2ccccc2)c1,2.44%

row,Compound,"hERG current change (%, negative = inhibition) at 1uM"
1,Cc1ccc(C(C)NC(=O)c2ccc3c(c2)OCO3)cc1C (centres unmarked),-7.59%
2,CCn1c(=O)cc(N2CCN(Cc3ccccc3)CC2)[nH]c1=O,6.64%
3,COc1ccc(-c2cc(C(=O)Nc3ccccc3F)on2)cc1,9.45%
4,Br.C=CCn1c(=N)n(CC(=O)c2ccc(Br)s2)c2ccccc21,-3.44%
5,Cn1c(-c2ccc(F)cc2)cnc1NCc1ccc(F)cc1,-4.84%
6,O=C(CCN1CCN(CC(=O)Nc2ccccc2Cl)CC1)Nc1ccccc1F,-54%
7,O=C(Nc1cccnc1)c1cnn2c(C(F)F)cc(C3CC3)nc12,-13.9%
8,CCN(CC)CCN1C(=O)c2oc3ccc(F)cc3c(=O)c2C1c1ccncc1 (centres unmarked),6.34%
9,COc1cc(OC)cc(N(C(=O)CNC(=O)c2cccs2)C(C(=O)NCC2CCCO2)c2ccccc2)c1 (centres unmarked),5.31%
10,Cc1cccc(N/C=C(\[N+](=O)[O-])S(=O)(=O)c2ccccc2)c1,17.7%
11,O=C(c1ccccn1)N(Cc1cccs1)C1(C(=O)NC2CCCCC2)CCCCC1,12.6%
12,O=C1CCc2ccc(NC(=O)C3CC3)cc2N1,11%
13,Cc1ccc(NC(=O)CCS(=O)(=O)c2cccc3nonc23)c(Br)c1,16%
14,COc1ccc2cc(CCNC(=O)c3ccc4c(c3)OCO4)c(=O)[nH]c2c1,13.2%
15,CC(C)n1nnnc1SCC(=O)c1ccc2c(c1)OCCO2,1.09%
16,O=C(CC1c2ccccc2Oc2ccccc21)N1CCN(c2ccccn2)CC1,7.01%
17,Cc1ccc(N2C(=NC(=O)c3ccccc3)SC3CS(=O)(=O)CC32)cc1 (centres unmarked),10.9%
18,O=C(COC(=O)/C=C/c1ccco1)NC1CCCCC1,8.37%
19,O=C(O)C1C2CC2CN1C(=O)c1ccc(Cl)cc1 (centres unmarked),10.5%
20,Cl.c1ccc(C2NCc3ccccc3-n3cccc32)cc1 (centres unmarked),3.33%
21,CN(Cc1ccccc1OCCO)CC1CCCN(CCc2ccc(Cl)cc2)C1 (centres unmarked),-15.8%
22,C#CCOCCOCCOCCNc1nc(N2CCOCC2)nc(N2CCN(C(=O)Cn3cc(CC(C)O)nn3)CC2)n1 (centres unmarked),9.74%

row,Compound,"hERG current change (%, negative = inhibition) at 1uM"
1,O=C(C1CCCN(S(=O)(=O)c2cccc3nonc23)C1)N1CCN(c2ccccc2Cl)CC1 (centres unmarked),14.3%
2,CC(C)CC(=O)NC(NCC1CCCO1)C(Cl)(Cl)Cl (centres unmarked),4.25%
3,Cc1ccc2c(c1)CCCN2C(=O)Nc1ccc2c(c1)OCO2,9.05%
4,COc1cccc(C(N)=O)c1OC(=O)Cc1ccccc1F,8.18%
5,COC(=O)c1c(NC(=O)Cc2ccccc2)sc2c1C(C(=O)OC)CC2 (centres unmarked),7.85%
6,CSCCC(NS(=O)(=O)c1ccc(Cl)cc1)C(=O)OCc1cccc(Cl)c1 (centres unmarked),3.09%
7,Cc1csc(NC(=O)CSc2ccc(-c3ccccc3)nn2)n1,-2.62%
8,COc1ccc(Cl)cc1NC(=O)CN(C)C(=O)Cc1n[nH]c(=O)c2ccccc12,3.92%
9,Cn1c(SCC(=O)N2CCc3ccccc32)nnc1C1CC1,17.9%
10,Cc1ccc(N(CC(=O)NC(C)c2ccccc2)S(=O)(=O)c2cccs2)cc1 (centres unmarked),11.3%
11,CCOC(=O)c1c(O)cc(C)cc1Nc1ccccc1,15.8%
12,O=C(COc1ccccc1[N+](=O)[O-])N/N=C/c1ccncc1,10.1%
13,CN1CCN(C(CNS(=O)(=O)c2ccc(F)cc2)c2cccnc2)CC1 (centres unmarked),6.68%
14,CC12CCC(C(=O)N(CC(O)CN3CCN(Cc4ccccc4)CC3)C1=O)C2(C)C.Cl (centres unmarked),11.2%
15,CCn1c(COc2ccccc2)nnc1SCC(=O)NCc1ccco1,7.83%
16,Cc1ccc(NC(=O)C2CCCN(C(=O)c3ccc(Cl)cc3)C2)c(C)c1 (centres unmarked),-5.44%
17,CCOc1ccc(N2C(=O)S/C(=C\c3ccc(O)c(OCC)c3)C2=O)cc1,11%
18,O=C(COC(=O)c1ccc2c(c1Cl)C(=O)c1ccccc1C2=O)NC1CC1,11.9%
19,CCN1CCN(c2ccc(NC(=O)c3cccnc3)cc2Cl)CC1,2.18%
20,O=C(NNC1CC(=O)N(c2ccccc2)C1=O)c1cccnc1 (centres unmarked),16.4%
21,CCCCCCCn1c(NC(=O)CC)nc2ccccc21,2.09%
22,N#Cc1ccc(C23CC4(C2)[C@H](CN(Cc2ccc(-c5ccccc5)cc2)[C@@H]4c2ccccc2)C3c2ccc(C(F)(F)F)cc2)cc1 (some centres unmarked),12.9%

row,Compound,"hERG current change (%, negative = inhibition) at 1uM"
1,Cc1onc(-c2ccccc2Cl)c1C(=O)Nc1nnc(-c2ccc(Br)cc2)s1,16.7%
2,O=c1c2c(n3nnnc3n1-c1ccccc1)-c1ccccc1CC21CCCC1,10.2%
3,Cc1cccc(N(CC(=O)N2CCc3ccccc3C2)S(C)(=O)=O)c1C,4.83%
4,COC(=O)c1cc(NS(=O)(=O)c2ccc(NCc3cccnc3)c([N+](=O)[O-])c2)cc(C(=O)OC)c1,12.3%
5,COc1cccc(CNC(=O)CCC2CCCN(C(=O)c3cccc(Cl)c3)C2)c1 (centres unmarked),4.9%
6,CCC1=NN(C(=O)c2ccccc2Br)C(O)(c2ccc(Br)cc2)C1 (centres unmarked),10.5%
7,C(=C\c1ccc(/C=C/c2ccccc2)nn1)/c1ccccc1,18.3%
8,CCOc1ccc(S(=O)(=O)N2CCC(C(=O)N3CCc4ccccc4C3)CC2)cc1,8.58%
9,COc1cccc(N(C(=O)C2COc3ccccc3O2)C(C(=O)NC2CCCCC2)c2ccc(O)cc2)c1 (centres unmarked),1.66%
10,Cc1cccc(NC(=O)C(NS(=O)(=O)c2ccc3c(c2)CCC(=O)N3)c2ccccc2)n1 (centres unmarked),-12.6%
11,CC(C)c1ccccc1-n1c(SCC(=O)N2CCN(c3ccccc3)CC2)nnc1-c1cccnc1,3.18%
12,CCCN(C(=O)CSc1nc2cc(S(=O)(=O)N(CC)CC)ccc2o1)C1CCS(=O)(=O)C1 (centres unmarked),-1.88%
13,COc1ccc(S(=O)(=O)N2CCCCCC2)cc1C(=O)N(C)CC(=O)Nc1ccccc1C(F)(F)F,9.11%
14,c1ccc2nc(N3CCOCC3)c(N3CCOCC3)nc2c1,15.1%
15,COC(=O)c1cc2nc(-c3ccc(OC)c(OC)c3)cc(C(F)(F)F)n2n1,12.2%
16,Cc1ccc(NC(=O)O/N=C/c2ccc(N(C)C)cc2)cc1,12.5%
17,Cc1ccc(S(=O)(=O)N2CCOC2CNC(=O)C(=O)NCCCc2ccccc2)cc1 (centres unmarked),5.36%
18,Cl.O=C(Nc1cccc(C(F)(F)F)c1)c1cccnc1N1CCOCC1,17.1%
19,N/C(=N\c1nc2ccccc2o1)NC(=O)c1ccc([N+](=O)[O-])cc1,-1.33%
20,Cc1ccnc(NS(=O)(=O)c2ccc(NC(=O)C3CCCNC3=O)cc2)n1 (centres unmarked),3.36%
